Results on 137 sequences are retold here after paper PMC5515408.

The list shows a part of the results. At the low end of the ranking, values are background and their order means little.

The experiment has as its system MYC (p64) + MAX (p21), in MYC:MAX. Put plainly: protein-binding microarray (anti-MAX antibody). The conditions noted are these: PBM: 15 mM Tris-HCl pH 7.5, 100 mM KCl, 0.075% NP40, 7.5 mM beta-mercaptoethanol, 375 ng/ul BSA, 8 ng/ul poly(dA-dT):(dA-dT), 550 ng complex, 60 min, room …; high values mean tight binding; double strand, one strand shown; sequences stand for … in CCGGC…TTAATAGCTAAGATTACTATATCGACG
For TGAGCTCGCGTA, the binding signal (log2 normalized fluorescence) is 0.244.

As to TGACCTCCAGTA, the binding signal (log2 normalized fluorescence) was determined as 0.268. With TGATATCATGTA, the binding signal (log2 normalized fluorescence) is 0.238. In the case of TGCCACGTCGTA, the binding signal (log2 normalized fluorescence) came out at 0.37. On to TGACTCGGCGTA, for which the binding signal (log2 normalized fluorescence) was determined as 0.0225. In the case of TTTCACGTGGTA, the binding signal (log2 normalized fluorescence) was 0.847. Regarding TGATTATTCGTA, the binding signal (log2 normalized fluorescence) was -0.191.

On to TCTGACGTGGTA, for which the binding signal (log2 normalized fluorescence) worked out at 0.473. The result for TGAGGTGAAGTA reads -0.0468; that for TGAACAAAGGTA, 0.0742. Then TGAATTTACGTA, with -0.111; and TGACTTCTGGTA, with 0.00271.

In the case of TGAGAAACTGTA, the binding signal (log2 normalized fluorescence) was -0.0537. Take TGATACGATGTA: the binding signal (log2 normalized fluorescence) came to 0.0769. TGACTTGGCGTA: the binding signal (log2 normalized fluorescence) is 0.258. TGACAAATGGTG: the binding signal (log2 normalized fluorescence) amounted to 0.43.

As to TGAACGTGGGTA, the binding signal (log2 normalized fluorescence) is 0.615.

With TGACCTACTGTA, the binding signal (log2 normalized fluorescence) worked out at 0.184. On to TGACTGATGGTA, for which the binding signal (log2 normalized fluorescence) is 0.272. Then TGAGCGCCCGTA, with 0.171; and TGAGTGCCGGTA, with 0.167. In the case of TGATAGAAAGTA, the binding signal (log2 normalized fluorescence) is -0.0501. As to TGAGATGTCGTA, the binding signal (log2 normalized fluorescence) was found to be 0.0274. TGACTCGAGGAA: the binding signal (log2 normalized fluorescence) amounted to 0.209. In the case of TGAGATGCGGTA, the binding signal (log2 normalized fluorescence) stood at 0.155. As to TGAAGCACGGTA, the binding signal (log2 normalized fluorescence) turned out to be 0.316. In the case of TGATTAAAGGTA, the binding signal (log2 normalized fluorescence) is -0.106. The result for TGATTTAAGGTA reads -0.132; that for TGAGGACGTGTA, 0.195; that for TGACACATGGCA, 0.478. For the sequence TGACGACACGTA, the binding signal (log2 normalized fluorescence) was determined as 0.2. Regarding TGATCAATTGTA, the binding signal (log2 normalized fluorescence) came out at 0.00363. Consider TGACCCGTGGCA, for which the binding signal (log2 normalized fluorescence) is 0.345. Regarding TGATCTGGAGTA, the binding signal (log2 normalized fluorescence) is -0.15. With TTACACGTGGGA, the binding signal (log2 normalized fluorescence) was determined as 0.81. The result for TGACGTACAGTA reads 0.112; that for TGAATAGTGGTA, 0.0384; that for TGACCATAAGTA, 0.383. As to TGAGGCACTGTA, the binding signal (log2 normalized fluorescence) worked out at 0.054. The result for TGAAACCAGGTA reads 0.0832. The result for TGATCCTTTGTA reads -0.0551.

As to TGACGGCGGGTA, the binding signal (log2 normalized fluorescence) is -0.0424. For the sequence TGATCCTAAGTA, the binding signal (log2 normalized fluorescence) is -0.181.

TGAAGCAATGTA: the binding signal (log2 normalized fluorescence) turned out to be 0.157. Consider TGACTCGCCGTA, for which the binding signal (log2 normalized fluorescence) turned out to be 0.252. As to TGACACGTGCCA, the binding signal (log2 normalized fluorescence) came out at 1. On to TGAAAACTGGTA, for which the binding signal (log2 normalized fluorescence) was -0.086. Turning to TAACACGCGGTC, the binding signal (log2 normalized fluorescence) was determined as 0.739.

Take TGACGAGAAGTA: the binding signal (log2 normalized fluorescence) is 0.0206. For the sequence TGACACGGCGTC, the binding signal (log2 normalized fluorescence) worked out at 0.151. In the case of TATCACGTGGTA, the binding signal (log2 normalized fluorescence) came out at 0.71.

With TGAGGAAAGGTA, the binding signal (log2 normalized fluorescence) is 0.0707. Regarding TGACGACAAGTA, the binding signal (log2 normalized fluorescence) worked out at 0.0769.

In the case of TCACCCGTGGTT, the binding signal (log2 normalized fluorescence) amounted to 0.535.

For the sequence TGAAAAACCGTA, the binding signal (log2 normalized fluorescence) was -0.00466. For the sequence TGATCCGACGTA, the binding signal (log2 normalized fluorescence) is -0.168. Take TGAATTTCAGTA: the binding signal (log2 normalized fluorescence) came to 0.0268. On to TGATCGGTTGTA, for which the binding signal (log2 normalized fluorescence) was -0.0422.

Consider TGACTCAACGTA, for which the binding signal (log2 normalized fluorescence) came to 0.24. TGATTACTGGTA: the binding signal (log2 normalized fluorescence) is -0.0694. TGAACGACGGTA: the binding signal (log2 normalized fluorescence) came to 0.0897. Regarding TGAAAAAACGTA, the binding signal (log2 normalized fluorescence) turned out to be 0.215.

Regarding TGAATCAATGTA, the binding signal (log2 normalized fluorescence) was determined as 0.252. The result for TGACTCGTTGTA reads 0.324. With ACTTACCTCCGG, the binding signal (log2 normalized fluorescence) came to 0.212. For TGACCCTTGTTA, the binding signal (log2 normalized fluorescence) is -0.028. With TGAATTGGGGTA, the binding signal (log2 normalized fluorescence) is 0.0325.

In the case of TGAGAGCACGTA, the binding signal (log2 normalized fluorescence) stood at 0.466. On to TGATCAAACGTA, for which the binding signal (log2 normalized fluorescence) is -0.00944. With TGACATTGTGTA, the binding signal (log2 normalized fluorescence) was 0.454. As for TGAAGGCTTGTA, the binding signal (log2 normalized fluorescence) amounted to 0.0378. On to TTTGACGTGGTA, for which the binding signal (log2 normalized fluorescence) was 0.393. The result for TGACACGTCGGA reads 0.32; that for TGAGGGAGAGTA, -0.0403. Consider TGAGAATTCGTA, for which the binding signal (log2 normalized fluorescence) is -0.123. In the case of TGAGGCCTTGTA, the binding signal (log2 normalized fluorescence) stood at 0.083.

In the case of TGAGAGTGTGTA, the binding signal (log2 normalized fluorescence) turned out to be 0.186. As to TGATTGTGAGTA, the binding signal (log2 normalized fluorescence) is 0.0653. The result for TGAAAACCAGTA reads 0.033; that for TGAGATTACGTA, -0.066; that for TGAACCTGTGTA, 0.332. In the case of TGAAGGAACGTA, the binding signal (log2 normalized fluorescence) was -0.0658. For the sequence TGAATTGCCGTA, the binding signal (log2 normalized fluorescence) was found to be 0.182. Then TGAAAGGTCGTA, with 0.0812. Regarding AGTAGGGTTGAC, the binding signal (log2 normalized fluorescence) came to 0.18.

As to TGACCTAGCGTA, the binding signal (log2 normalized fluorescence) is 0.148. In the case of TGACATGCGGAA, the binding signal (log2 normalized fluorescence) was 0.337. In the case of TGATGCCAGGTA, the binding signal (log2 normalized fluorescence) came to 0.0211. As for TGAACTTCTGTA, the binding signal (log2 normalized fluorescence) amounted to 0.115. The result for TGAACATTAGTA reads 0.207. On to TGAGTACCGGTA, for which the binding signal (log2 normalized fluorescence) was -0.165. With TGATACGGTGTA, the binding signal (log2 normalized fluorescence) is 0.0498. In the case of TGATATCCCGTA, the binding signal (log2 normalized fluorescence) was -0.0527. With TGATGAACAGTA, the binding signal (log2 normalized fluorescence) was -0.0341. In the case of TGATTTGTCGTA, the binding signal (log2 normalized fluorescence) is -0.0969. With TTACACCTGGGA, the binding signal (log2 normalized fluorescence) amounted to 0.324. In the case of TGAGCCTCCGTA, the binding signal (log2 normalized fluorescence) was -0.0648. For TGACATGAAGTA, the binding signal (log2 normalized fluorescence) came to 0.276. For TGAGAACCAGTA, the binding signal (log2 normalized fluorescence) was -0.0272.

For AGCCACGTGGTA, the binding signal (log2 normalized fluorescence) stood at 0.908.

Take TGACGGGGCGTA: the binding signal (log2 normalized fluorescence) amounted to 0.37. As to TGAAAGGCTGTA, the binding signal (log2 normalized fluorescence) was 0.0112.

TGAATCGAAGTA: the binding signal (log2 normalized fluorescence) was -0.0208.

On to TGAATGAAAGTA, for which the binding signal (log2 normalized fluorescence) turned out to be 0.156.

Turning to TGCCACGTGGTG, the binding signal (log2 normalized fluorescence) worked out at 0.763. In the case of TGAGGTCGCGTA, the binding signal (log2 normalized fluorescence) was 0.0221. Turning to TGACGTAAAGTA, the binding signal (log2 normalized fluorescence) came out at 0.132. The result for TGAGTGGGTGTA reads 0.257. For TGAGTGGTGGTA, the binding signal (log2 normalized fluorescence) was determined as 0.28. On to TGACGGTGAGTA, for which the binding signal (log2 normalized fluorescence) was 0.154. Take TGATTGTCGGTA: the binding signal (log2 normalized fluorescence) is -0.0618. Regarding TGAGGGTCGGTA, the binding signal (log2 normalized fluorescence) was 0.137. In the case of TGAATCGAGGTA, the binding signal (log2 normalized fluorescence) came out at 0.273. The result for TGAGACCGCGTA reads 0.176.

On to TGAGTGCGGGTA, for which the binding signal (log2 normalized fluorescence) came to 0.213. Turning to TGGGCCGTGGTA, the binding signal (log2 normalized fluorescence) amounted to 0.0925. On to TGAGACGAAGTA, for which the binding signal (log2 normalized fluorescence) is 0.0305. Then TGAACTCATGTA, with 0.469; and TCAAAGGCCTTA, with -0.0783. In the case of TGTCACGTGGCA, the binding signal (log2 normalized fluorescence) stood at 0.795. For TATGACGTGGTA, the binding signal (log2 normalized fluorescence) came out at 0.398. In the case of TGACCGGGGGTA, the binding signal (log2 normalized fluorescence) was found to be 0.631.

In the case of TGAAGCAACGTA, the binding signal (log2 normalized fluorescence) was found to be 0.212. As for TGACAGGTTGCA, the binding signal (log2 normalized fluorescence) is 0.264.

On to TGACCGCCAGTA, for which the binding signal (log2 normalized fluorescence) turned out to be 0.192. As to TGAGATGATGTA, the binding signal (log2 normalized fluorescence) is 0.0753. The result for AGACACATGGGA reads 0.468. Then TGAGTGGAAGTA, with -0.0931; and TGACCAACGGTA, with 0.052; and TGAGTCCTAGTA, with -0.104. For the sequence TGACGTATCGTA, the binding signal (log2 normalized fluorescence) came out at 0.11. Regarding TGACCCGTTGAA, the binding signal (log2 normalized fluorescence) is 0.151.

Consider TGATTAGAAGTA, for which the binding signal (log2 normalized fluorescence) is -0.155. The result for TGACACGCGTTA reads 0.755. The result for TGAACGGGGGTA reads 0.584.

On to CGAGACGTAGTT, for which the binding signal (log2 normalized fluorescence) is -0.0298. With TGACACGTTCGA, the binding signal (log2 normalized fluorescence) is 0.447.
